The other results are listed elsewhere or left out. The list includes weakly bound sequences.

For the assay, the target named is MaxL homodimer (UniProt P61244). Kind of assay: universal protein-binding microarray (PBM). To be noted: PBS-based mixture, 10 nM His-tagged protein dimer, 2% milk, 200 ng/uL BSA, 50 ng/uL salmon testes DNA, 0.02% TX-100; detection with Alexa 488 anti-His …; high values mean tight binding; most listed sequences are background and not binding sites; double strand, one strand shown.
Sequence of UniProt P61244 (P61244 whole entry): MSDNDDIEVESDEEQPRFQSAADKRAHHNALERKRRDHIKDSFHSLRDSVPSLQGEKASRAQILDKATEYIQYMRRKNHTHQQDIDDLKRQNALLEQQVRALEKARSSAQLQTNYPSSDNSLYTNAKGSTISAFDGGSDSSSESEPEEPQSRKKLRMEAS
As for CGCGAGTC, the binding signal (normalized occupancy) stood at 0.0762.

Turning to CCACACAA, the binding signal (normalized occupancy) came out at 0.0772.

Consider TAAAGTAA, for which the binding signal (normalized occupancy) was found to be 0.0794.

In the case of CCCAAGAA, the binding signal (normalized occupancy) was 0.0714.

On to GAGCACGA, for which the binding signal (normalized occupancy) was 0.0838.

For the sequence TTCGTCAA, the binding signal (normalized occupancy) was 0.0799.

Regarding CAATGCCA, the binding signal (normalized occupancy) was found to be 0.079.

In the case of CTAGTTGA, the binding signal (normalized occupancy) came to 0.0764.

In the case of ACTCTCCG, the binding signal (normalized occupancy) stood at 0.0686.

Regarding ACGTCTCA, the binding signal (normalized occupancy) was determined as 0.0761.

Consider CTCGTCTC, for which the binding signal (normalized occupancy) is 0.0777.

Take AGTTGCGC: the binding signal (normalized occupancy) stood at 0.0719.

With CTATCCAG, the binding signal (normalized occupancy) is 0.0727.

For CGGGTGTC, the binding signal (normalized occupancy) is 0.0748.

For ATACGCCG, the binding signal (normalized occupancy) was 0.0712.

Take GAGGCTGC: the binding signal (normalized occupancy) was determined as 0.069.

Consider CCGGCCGA, for which the binding signal (normalized occupancy) is 0.0662.

Consider CCTTACGA, for which the binding signal (normalized occupancy) stood at 0.0735.

On to CTTGTCCA, for which the binding signal (normalized occupancy) was 0.0792.

On to ACATTATA, for which the binding signal (normalized occupancy) stood at 0.0868.

With ACCACCGG, the binding signal (normalized occupancy) is 0.0736.

On to ATTCTGTG, for which the binding signal (normalized occupancy) amounted to 0.0779.

In the case of CTTAATTA, the binding signal (normalized occupancy) was 0.0757.

Consider CTAATGGA, for which the binding signal (normalized occupancy) is 0.0729.

As to CAGTAGAG, the binding signal (normalized occupancy) came to 0.0718.

For AGAATTTA, the binding signal (normalized occupancy) came out at 0.0706.

In the case of GCTTGACA, the binding signal (normalized occupancy) came out at 0.0727.

With ACAGTTCC, the binding signal (normalized occupancy) turned out to be 0.0675.

As to ATATTGCC, the binding signal (normalized occupancy) turned out to be 0.0846.

TCCCGTAA: the binding signal (normalized occupancy) worked out at 0.0783.

On to GGAGCGAC, for which the binding signal (normalized occupancy) stood at 0.0728.

Turning to AAAGTTAA, the binding signal (normalized occupancy) is 0.0758.

With CGATTCAC, the binding signal (normalized occupancy) was 0.0799.

On to CTCACACC, for which the binding signal (normalized occupancy) was found to be 0.0818.

TGGCACCA: the binding signal (normalized occupancy) worked out at 0.0743.

As for CCCCGGCC, the binding signal (normalized occupancy) amounted to 0.0723.

With ATACGGTG, the binding signal (normalized occupancy) was 0.0797.

Consider AGGATTAG, for which the binding signal (normalized occupancy) was found to be 0.0745.

As for CAATAAAG, the binding signal (normalized occupancy) came to 0.0733.

Turning to CAACGTTG, the binding signal (normalized occupancy) amounted to 0.083.

For the sequence CAATCGCG, the binding signal (normalized occupancy) turned out to be 0.0715.

On to AAGGGCCC, for which the binding signal (normalized occupancy) worked out at 0.0709.

Take ACAGATTC: the binding signal (normalized occupancy) was 0.0776.

In the case of GCCTCAGC, the binding signal (normalized occupancy) turned out to be 0.0723.

Turning to CCTGAAGA, the binding signal (normalized occupancy) was determined as 0.0682.

As to GCATGTCA, the binding signal (normalized occupancy) was determined as 0.0972.

For GCCTGCCC, the binding signal (normalized occupancy) came to 0.0714.

Turning to CGTACGTA, the binding signal (normalized occupancy) was found to be 0.0802.

In the case of CAGCAATC, the binding signal (normalized occupancy) turned out to be 0.0708.

Take CGGTGGAC: the binding signal (normalized occupancy) turned out to be 0.0705.

Take CTCCGTTC: the binding signal (normalized occupancy) came to 0.0678.

As for CGACAGAC, the binding signal (normalized occupancy) is 0.0744.

As to ACACCCGC, the binding signal (normalized occupancy) worked out at 0.0772.

As to ACCTTTGG, the binding signal (normalized occupancy) was determined as 0.068.

For GTAAATGA, the binding signal (normalized occupancy) is 0.0763.

Regarding CCATGCGA, the binding signal (normalized occupancy) turned out to be 0.1.

In the case of CGCACCAC, the binding signal (normalized occupancy) is 0.0841.

On to AATGCGCG, for which the binding signal (normalized occupancy) came to 0.0754.

With GCGCCATA, the binding signal (normalized occupancy) came out at 0.0749.

For ACAGAGAG, the binding signal (normalized occupancy) came out at 0.0712.

Consider CCAACGAG, for which the binding signal (normalized occupancy) was 0.0824.

In the case of CTCACAGA, the binding signal (normalized occupancy) worked out at 0.071.

Take CTTAAGCC: the binding signal (normalized occupancy) was found to be 0.0672.

As to AAGGTCTG, the binding signal (normalized occupancy) stood at 0.074.

Consider GCAGATGA, for which the binding signal (normalized occupancy) was found to be 0.0781.

Take ACTGGAGA: the binding signal (normalized occupancy) came out at 0.0692.

Turning to ATACAAGC, the binding signal (normalized occupancy) is 0.0777.

Take ATATAAAA: the binding signal (normalized occupancy) was 0.0719.

In the case of CCAACGTA, the binding signal (normalized occupancy) was 0.0759.

For CAGTCACA, the binding signal (normalized occupancy) came to 0.081.

In the case of AGTAAGGG, the binding signal (normalized occupancy) was 0.0786.

As to AACGAATG, the binding signal (normalized occupancy) worked out at 0.0784.

Regarding CAACTGGG, the binding signal (normalized occupancy) stood at 0.0705.

In the case of CCTATCCG, the binding signal (normalized occupancy) amounted to 0.0805.

Consider GTTACAAA, for which the binding signal (normalized occupancy) stood at 0.0761.

With GAACCAGC, the binding signal (normalized occupancy) turned out to be 0.0718.

Regarding GTTGTTAA, the binding signal (normalized occupancy) was found to be 0.0782.

In the case of GTATATCA, the binding signal (normalized occupancy) is 0.0787.

For AAGGATGC, the binding signal (normalized occupancy) came to 0.0729.

Turning to GCACCACC, the binding signal (normalized occupancy) was determined as 0.0789.

CCCCACGC: the binding signal (normalized occupancy) was 0.0979.

Regarding ACACGGTA, the binding signal (normalized occupancy) amounted to 0.0853.

Consider ACGTTTTA, for which the binding signal (normalized occupancy) was determined as 0.0808.

With TTAACTAA, the binding signal (normalized occupancy) came to 0.0752.

As to GCATGGCA, the binding signal (normalized occupancy) came to 0.102.

As to TCGGGGCA, the binding signal (normalized occupancy) was 0.0799.

As for CGAATGCC, the binding signal (normalized occupancy) came to 0.0759.

Consider ACATACGC, for which the binding signal (normalized occupancy) was 0.0812.

Consider TAATCCAA, for which the binding signal (normalized occupancy) was 0.0842.

As to CGCTATGA, the binding signal (normalized occupancy) amounted to 0.0755.

As to GCCATTAA, the binding signal (normalized occupancy) was found to be 0.074.

On to CCTTGCAA, for which the binding signal (normalized occupancy) is 0.0714.

Consider GCGTCGTA, for which the binding signal (normalized occupancy) was found to be 0.0758.

Take ACTCGCGG: the binding signal (normalized occupancy) came out at 0.0757.

For the sequence AGGAGCGA, the binding signal (normalized occupancy) is 0.0703.

Turning to CTCTAGCA, the binding signal (normalized occupancy) is 0.0773.

On to ATAGAGAC, for which the binding signal (normalized occupancy) worked out at 0.0767.

Regarding GACAGCTC, the binding signal (normalized occupancy) was determined as 0.0685.

Turning to AACCAGAA, the binding signal (normalized occupancy) was determined as 0.0757.

As to AGGAGCTA, the binding signal (normalized occupancy) turned out to be 0.0748.

As to AGACATTA, the binding signal (normalized occupancy) was found to be 0.0819.

In the case of ACTTATTA, the binding signal (normalized occupancy) is 0.0825.

As for CGATCACG, the binding signal (normalized occupancy) worked out at 0.0845.

For the sequence ATACCCTG, the binding signal (normalized occupancy) is 0.0741.

For CTATGTCA, the binding signal (normalized occupancy) is 0.0757.

As to TAGGGGGA, the binding signal (normalized occupancy) is 0.0765.

For CCTCCGTA, the binding signal (normalized occupancy) came to 0.0769.

Regarding AAAAAGAC, the binding signal (normalized occupancy) is 0.0722.

Turning to AATGTGAG, the binding signal (normalized occupancy) amounted to 0.0853.

For the sequence TCAGACCA, the binding signal (normalized occupancy) amounted to 0.0809.

For the sequence CATTGCGG, the binding signal (normalized occupancy) amounted to 0.0847.

Regarding ATACGTGA, the binding signal (normalized occupancy) was 0.081.

In the case of ATGGTTCA, the binding signal (normalized occupancy) worked out at 0.085.

With CGGATGCA, the binding signal (normalized occupancy) stood at 0.0758.

Take GGCGATGA: the binding signal (normalized occupancy) was found to be 0.0788.

Regarding AGACACGA, the binding signal (normalized occupancy) was 0.0855.

As for CGTACCTA, the binding signal (normalized occupancy) came to 0.0757.

With CCGTACCA, the binding signal (normalized occupancy) amounted to 0.0721.

Take ATAAATTG: the binding signal (normalized occupancy) amounted to 0.0786.

In the case of ACGTCACT, the binding signal (normalized occupancy) was 0.0708.

Regarding GACGTGCA, the binding signal (normalized occupancy) amounted to 0.0797.

AAATATAG: the binding signal (normalized occupancy) is 0.0837.

CCTTAAAA: the binding signal (normalized occupancy) turned out to be 0.0718.

Regarding GGTGAGGA, the binding signal (normalized occupancy) was 0.0737.

As to GGGATAAC, the binding signal (normalized occupancy) was determined as 0.0824.

Take AGTAGTAC: the binding signal (normalized occupancy) came out at 0.0803.

As to CCTGCGCC, the binding signal (normalized occupancy) was determined as 0.0696.

As for GGAATTCC, the binding signal (normalized occupancy) was determined as 0.0713.

Take GTAGCTTA: the binding signal (normalized occupancy) worked out at 0.0706.

GGGCCTGA: the binding signal (normalized occupancy) was determined as 0.0698.

Consider CTTCGTCA, for which the binding signal (normalized occupancy) amounted to 0.0783.

For the sequence GCCTACAA, the binding signal (normalized occupancy) was 0.075.

Take TCAGGGGA: the binding signal (normalized occupancy) turned out to be 0.078.

For GCGATAAC, the binding signal (normalized occupancy) stood at 0.0707.

Take ACGTCTAG: the binding signal (normalized occupancy) is 0.0746.

As to CGTCGTTC, the binding signal (normalized occupancy) is 0.073.

For the sequence ACAAACAG, the binding signal (normalized occupancy) came out at 0.0755.

As to CCTAAAGA, the binding signal (normalized occupancy) came out at 0.0749.

As to AATACGAG, the binding signal (normalized occupancy) turned out to be 0.0786.

Regarding AGTATGCC, the binding signal (normalized occupancy) came out at 0.0744.

In the case of TATCGTGA, the binding signal (normalized occupancy) was 0.0827.

For the sequence ATGATAGA, the binding signal (normalized occupancy) is 0.081.

For AACACCTT, the binding signal (normalized occupancy) is 0.0733.

For the sequence CACCTGAA, the binding signal (normalized occupancy) turned out to be 0.0797.

As for CGAGAATA, the binding signal (normalized occupancy) came to 0.0809.

For the sequence TCAGGCGA, the binding signal (normalized occupancy) is 0.0727.

Consider ACCTTCTA, for which the binding signal (normalized occupancy) came to 0.0743.

Consider ACCGCTGA, for which the binding signal (normalized occupancy) worked out at 0.0726.

In the case of ACCCTGTG, the binding signal (normalized occupancy) turned out to be 0.0803.

For TATTTGAA, the binding signal (normalized occupancy) amounted to 0.0755.

For the sequence ATTTGCTG, the binding signal (normalized occupancy) is 0.0711.

Consider ACACGGTG, for which the binding signal (normalized occupancy) worked out at 0.0873.

Regarding ATGCCTAA, the binding signal (normalized occupancy) worked out at 0.0774.

As for CTGTAGTA, the binding signal (normalized occupancy) came to 0.0854.

As to CCCAATTC, the binding signal (normalized occupancy) was 0.0786.

In the case of GTTATCCA, the binding signal (normalized occupancy) is 0.0826.

With AAGTAGAG, the binding signal (normalized occupancy) was 0.0757.

With ACGAGAAC, the binding signal (normalized occupancy) was 0.0879.

Turning to GAGGGACC, the binding signal (normalized occupancy) was 0.0721.

Consider CTTCCTTA, for which the binding signal (normalized occupancy) is 0.0844.

Consider CGCGTGTA, for which the binding signal (normalized occupancy) came out at 0.123.

Turning to ATTATACG, the binding signal (normalized occupancy) is 0.0765.

For AAAACCGG, the binding signal (normalized occupancy) worked out at 0.0676.

For AGGCAACC, the binding signal (normalized occupancy) worked out at 0.0731.

For CTTCAGTC, the binding signal (normalized occupancy) is 0.0722.

CGCACGAG: the binding signal (normalized occupancy) is 0.107.

Turning to CGAACTAG, the binding signal (normalized occupancy) is 0.0685.

As for ACCTCCCG, the binding signal (normalized occupancy) came out at 0.0756.

On to GCTCGGAA, for which the binding signal (normalized occupancy) came to 0.0677.

In the case of CTTCCCAC, the binding signal (normalized occupancy) was 0.0765.

Regarding GCTCGACA, the binding signal (normalized occupancy) is 0.0649.

With AGCCACCT, the binding signal (normalized occupancy) turned out to be 0.0768.
